Measured values published in PubChem BioAssay (NCI).
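1) Cells in 96-well plates. 2) Compound, 48 h, 5 concentrations. 3) Linear interpolation between surrounding doses. 4) Unreached endpoint = highest concentration. TGI: concentration producing complete growth inhibition.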 Certain results were filed several times, with different values. They are shown here; other results are not. The source may hold further records. The tests behind the records often covered other concentration ranges, which the source does not state; some values may only mark the edge of a range.

How the values were obtained:
Assay in all cases: NCI-60 cell line screen, 48 h
TK-10 renal = tested on: TK-10 renal
DU-145 prostate = tested on: DU-145 prostate
CAKI-1 renal = tested on: CAKI-1 renal
MCF7 breast = tested on: MCF7 breast
SK-OV-3 ovarian = tested on: SK-OV-3 ovarian
HCT-116 colon = tested on: HCT-116 colon

Structure (SMILES): CCC(C)SC1SCC2C(=O)N(C)C3(CC3C)C(=O)OCC(NC(=O)c3nc4ccccc4cc3O)C(=O)NC(C)C(=O)N(C)C1C(=O)N(C)C1(CC1C)C(=O)OCC(NC(=O)c1nc3ccccc3cc1O)C(=O)NC(C)C(=O)N2C (stereo unspecified)
- TGI (TK-10 renal): 4.63 µM [mean of 2 tests] and 40.1 nM [mean of 3 tests]
- TGI (DU-145 prostate): 64.5 nM and 10.6 µM
- TGI (CAKI-1 renal): 0.422 nM and 7.8 µM
- TGI (MCF7 breast): 4.66 nM and 31.5 µM
- TGI (SK-OV-3 ovarian): 65.1 nM and 2.67 µM
- TGI (HCT-116 colon): 19.1 nM and 1.93 µM
